24 compounds from PubChem BioAssay AID1508623 (National Center for Advancing Translational Sciences (NCATS), 2021) can be followed below.

About 450 (0.94%) of roughly 48,000 compounds were called active. About 19% were inconclusive and are not listed. The call rests on the fitted dose curve; in most records, active means well fitted inhibition curve with a large enough effect; inconclusive means small, poorly fitted or top-dose-only effect; inactive means no such curve, though single readings can be large or run the other way. The list shows a part of the results.

A short description of this test: Primary qHTS for Identification of Small Molecule Inhibitors of Huntingtin Promoter Activity. Further: nearly all actives have a fitted effect of over 50% in size. The following applies: HEK293 HTT promoter firefly luciferase reporter (activity 0% = vehicle and -100% = no light), 24 h; series mostly up to 57.5 µM; activity change, negative = inhibition: at the top concentration. Summed up:
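HEK293 Fluc reporter, 2,500 cells/well, 24 h pre-culture; cpds up to 57.5 uM final, 24 h 37 degrees C; Dual-Glo, 10 min RT; normalized vehicle = 0%, zero RLU = -100%.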
A general note: qHTS replaces the single test concentration by a dilution series.
As to `CCOC(=O)c1ccc(NC(=O)Cn2c(=O)cc(C)c3c(C)nn(-c4ccc(CC)cc4)c32)cc1`, the “activity change, negative = inhibition” value was inactive: -28.9%.

On to `COc1cccc(/C=C/c2nc(C#N)c(N3CCC(C(N)=O)CC3)o2)c1`, for which the “activity change, negative = inhibition” value was inactive: -1.06%.

Consider `CCOc1ccc(CCNC(=O)c2cn(-c3ccc(OC)cc3)c(=O)c3ccccc23)cc1OCC`, for which the “activity change, negative = inhibition” value was inactive: -15.9%.

Consider `COc1ccc(NC(=O)Cn2c(=O)n(CCC(=O)NCC3CCCO3)c(=O)c3cc(OC)c(OC)cc32)cc1` (centres undefined), for which the “activity change, negative = inhibition” value is inactive: -16.1%.

Regarding `COc1ccccc1Nc1sc(C(=O)c2ccc(F)cc2)c(N)c1S(=O)(=O)c1ccc(C)cc1`, the “activity change, negative = inhibition” value is inactive: -29.1%.

Turning to `COc1ccc(-c2noc(-c3ccc(N4CCCC4)c([N+](=O)[O-])c3)n2)cc1OC`, the “activity change, negative = inhibition” value was inactive: -8.01%.

`CCC(=O)O[C@]1(C(=O)CCl)[C@@H](C)C[C@H]2[C@@H]3CCC4=CC(=O)C=C[C@]4(C)[C@@]3(F)[C@@H](O)C[C@@]21C`: the activity change, negative = inhibition result is “inactive”.

`CCc1ccc(-n2nc(C)c3c(C(=O)N4CCN(c5ccccc5)CC4)cc(C)nc32)cc1`: the “activity change, negative = inhibition” value is inactive: -24.5%.

Take `CCOc1ccc(CNC(=O)C2CCCN(c3nnc(C)c4c(C)n(-c5ccccc5)nc34)C2)cc1` (centres undefined): the “activity change, negative = inhibition” value was inactive: -13.9%.

With `O=C1C[C@@H](c2ccc(O)cc2)Oc2cc(O)cc(O)c21`, the “activity change, negative = inhibition” value is inactive: 32.4%.

Turning to `CCOc1cc(C2NC(=O)c3c(sc4c3CCN(C)C4)N2)ccc1OC(=O)c1ccc(Br)cc1` (centres undefined), the “activity change, negative = inhibition” value is inactive: -4.41%.

Regarding `Cc1nn2c(C)c(C(=O)NC(C)c3ccccc3)cnc2c1-c1ccc(F)cc1` (centres undefined), the “activity change, negative = inhibition” value was inactive: -14.8%.

Take `CCOc1ccc(NC(=O)Cn2cnc3sc(C)c(S(=O)(=O)N4CCN(c5ccccc5OC)CC4)c3c2=O)cc1`: the “activity change, negative = inhibition” value is inactive: -20.5%.

With `COc1ccc(C)cc1NC(=O)c1cc2c(=O)n3cccc(C)c3nc2s1`, the “activity change, negative = inhibition” value was inactive: 1.61%.

For `CCC(=O)N1CCCc2cc(S(=O)(=O)N3CCC(C(=O)NCc4ccc(F)cc4)CC3)ccc21`, the “activity change, negative = inhibition” value was inactive: -32.3%.

With `Cc1cccc(C)c1-n1ncc(C(=O)O)c1C1CCN(C(=O)OC(C)(C)C)CC1`, the “activity change, negative = inhibition” value was inactive: 16.8%.

In the case of `COc1ccc(Cl)cc1NC(=O)c1cn(C2CCCC2)c(=O)c2c1c1ccccc1n2C`, the “activity change, negative = inhibition” value is inactive: -3.98%.

Take `Cc1cccc(N(CC(=O)Nc2ccccc2C(F)(F)F)S(=O)(=O)c2ccccc2)c1C`: the “activity change, negative = inhibition” value is inactive: -28.6%.

Consider `COc1ccc(OC)c(C2CC(=O)Oc3c2c(=O)n(C)c2ccccc32)c1` (centres undefined), for which the “activity change, negative = inhibition” value is inactive: -27.6%.

On to `O=C(Nc1ccc(F)cc1)c1ccc2c(=O)n3c(nc2c1)CCCCC3`, for which the “activity change, negative = inhibition” value was inactive: 11.3%.

On to `COCCCNC(=O)CSc1nc2c(sc3ccccc32)c(=O)n1CCc1ccc(OC)c(OC)c1`, for which the “activity change, negative = inhibition” value was inactive: -8.32%.

As to `COc1ccccc1C(=O)NC1(C(F)(F)F)C(=O)Nc2c1c(=O)[nH]c(=O)n2-c1ccc(F)cc1` (centres undefined), the “activity change, negative = inhibition” value is inactive: 1.63%.

For the compound `CN(C)CCNC(=O)Cn1ccc2cc(S(=O)(=O)N3CCCCCC3)ccc21`, the “activity change, negative = inhibition” value was inactive: 2.74%.

For `Cc1cccc(Cn2c(-c3cccc(Br)c3)nc3ccccc32)c1`, the “activity change, negative = inhibition” value was inactive: -25.6%.
